{"source": "the supplement of paper PMC10338343", "note": "± gives the standard deviation. The list shows a part of the results, in another mix than the full data.", "data": [{"tested_on": "MIWI (PIWIL1) piRISC loaded with L1MC piRNA (30 nt)", "assay": "pre-steady-state target cleavage rate (min^-1); MIWI and MILI are mouse PIWI proteins and EfPiwi is from a freshwater sponge; tags in brackets are library labels; higher = faster piRNA-guided slicing of the target", "settings": "guide: L1MC piRNA 5'p-UAACUAAAUACUAUGCAAGCUGUAGGUCCU; auxiliary factor: 500 nM mouse GTSF1", "in_short": "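A transcribed, DNA-blocked target RNA library (0.1 nM) and 1 nM active affinity-purified piRISC bearing one synthetic guide were incubated in HEPES–potassium acetate buffer at 33 °C for 0–8 or 0–960 min, either with or without 500 nM GTSF1 partner protein. Uncleaved targets were sequenced, normalised to depth and to weakly complementary targets, and pooled over three trials, with k3 capped at 0.0001 min^-1. The pre-steady-state cleavage rate was derived with a burst-and-steady-state fit.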", "values": [{"sequence": "UCCUGGAUGUGCUUGCAUAGUACUUAGUUA", "pre-steady-state target cleavage rate": "0.17 ± 0.019"}, {"sequence": "UGGACCUACAGGUUGCAUAGUAUUAAGUUA", "pre-steady-state target cleavage rate": "0.494 ± 0.045"}, {"sequence": "UCCUGGAUGAGCUUGCAAAGUAUUUAGAAA", "pre-steady-state target cleavage rate": "0.188 ± 0.033"}, {"sequence": "UGGACCUACAGCAUGCAUAGUAUUUAGAAA", "pre-steady-state target cleavage rate": "0.5 ± 0.061"}, {"sequence": "UCCUCCUACAGCUUGGUUAGUAUUUAGUUA", "pre-steady-state target cleavage rate": "1.25 ± 0.047"}, {"sequence": "UCCUGGAUGUCCUCGCAUAGUAUUUAGUUA", "pre-steady-state target cleavage rate": "0.0152 ± 0.0041"}, {"sequence": "UCGACCAACAGCUUGCAUAGUUUUUAGUUA", "pre-steady-state target cleavage rate": "0.452 ± 0.023"}, {"sequence": "UCCUCCUACAGCAUGCAUAGUAUUUAGUUA", "pre-steady-state target cleavage rate": "1.2 ± 0.051"}, {"sequence": "UCCACCUACAGCUUGCAAUGUAUUUAGUAA", "pre-steady-state target cleavage rate": "0.241 ± 0.022"}, {"sequence": "AGGACCUUCAGCUUGCAUAGUAUUAAGUUA", "pre-steady-state target cleavage rate": "0.715 ± 0.058"}, {"sequence": "UCCUCCUACAGGCUUGCAUAGUAUUUAGUUA", "pre-steady-state target cleavage rate": "0.937 ± 0.041"}, {"sequence": "UCCUCCUACAGCUUGGAUAGUUUUUAGUUA", "pre-steady-state target cleavage rate": "0.358 ± 0.024"}, {"sequence": "UCCUGGUACAGCUUGCAUAGUAUGUUAGUUA", "pre-steady-state target cleavage rate": "0.373 ± 0.042"}, {"sequence": "UCCUGGAUGUGCUUGCAUAGUAAUUUGUUA", "pre-steady-state target cleavage rate": "0.0171 ± 0.0079"}, {"sequence": "AGGACCUACAGCUUGCAUUGUAUUUAGUAA", "pre-steady-state target cleavage rate": "0.455 ± 0.041"}, {"sequence": "UGGACCAUGAGCUUGCAUAGUAUUUAGAAA", "pre-steady-state target cleavage rate": "0.284 ± 0.034"}, {"sequence": "UCGACCUUCAGGUUGCAUAGUAUUUAGUUA", "pre-steady-state target cleavage rate": "1.04 ± 0.043"}, {"sequence": "UGGACCUAGAGGUUGCAUAGUAUUUAGUUA", "pre-steady-state target cleavage rate": "0.513 ± 0.07"}, {"sequence": "UCCUCCUACAGCUUGCAUAGUAUUUAGGUUA", "pre-steady-state target cleavage rate": "0.442 ± 0.055"}, {"sequence": "UCGACCUACAGCCUGCAUAGUAUUUAGUUA", "pre-steady-state target cleavage rate": "1.41 ± 0.038"}, {"sequence": "UCCUGGAUGUGCUUGCAUAGUAUUUAGAUUA", "pre-steady-state target cleavage rate": "0.178 ± 0.032"}, {"sequence": "UCCUGGAUGAGCUUGCAUAGAAUAUAGUUA", "pre-steady-state target cleavage rate": "0.0274 ± 0.0077"}, {"sequence": "AGGACCUACAGCUUGGAUAGAAUUUAGUUA", "pre-steady-state target cleavage rate": "0.473 ± 0.054"}, {"sequence": "UGGACCUACAGCUUGCAUAGUAUAUUGUUA", "pre-steady-state target cleavage rate": "0.403 ± 0.04"}, {"sequence": "ACGGACCUACAGCUUGCAUAGUAUUUAGUUA", "pre-steady-state target cleavage rate": "1.24 ± 0.072"}, {"sequence": "UCCUGCUACUGCUUGGAUAGUAUUUAGUUA", "pre-steady-state target cleavage rate": "0.969 ± 0.077"}, {"sequence": "UCCUGGAUCAGCUUGUAUAGUAUUUAGUUA", "pre-steady-state target cleavage rate": "1.64 ± 0.1"}, {"sequence": "ACGACCUACAGCUUGCAUUGUAUUUAGUUA", "pre-steady-state target cleavage rate": "1.17 ± 0.049"}, {"sequence": "UCCUGGAACAGCUUCGCAUAGUAUUUAGUUA", "pre-steady-state target cleavage rate": "0.887 ± 0.038"}, {"sequence": "UCCUGGAACAGCUUGCAUAGUAUUUAGCUA", "pre-steady-state target cleavage rate": "0.0325 ± 0.013"}, {"sequence": "UCCUGGUACAGCUUGCAUAGUAUUUUGAUA", "pre-steady-state target cleavage rate": "0.166 ± 0.031"}, {"sequence": "UCCUGGAUGAGCUUGCAUAGUAUUUAGCUUA", "pre-steady-state target cleavage rate": "0.196 ± 0.043"}, {"sequence": "UGGACGUACAGCUAGCAUAGUAUUUAGUUA", "pre-steady-state target cleavage rate": "0.986 ± 0.047"}, {"sequence": "AGGACCUACAGCUUGCAUAGAAUUAAGUUA", "pre-steady-state target cleavage rate": "0.311 ± 0.031"}, {"sequence": "UCCUGGAACAGCUUGCAUAGUAUUUAGGUA", "pre-steady-state target cleavage rate": "0.172 ± 0.027"}, {"sequence": "UCCUGCUACAGCUAGCUUAGUAUUUAGUUA", "pre-steady-state target cleavage rate": "0.747 ± 0.049"}, {"sequence": "UCCUGCUACAGCUUGCAUUGUAUUUAGUAA", "pre-steady-state target cleavage rate": "0.464 ± 0.039"}, {"sequence": "UCGACCUAGAGCUUGCAUAGUAUUAAGUUA", "pre-steady-state target cleavage rate": "0.618 ± 0.058"}, {"sequence": "UCCUGGAUGUGCUGCAUAGUAUUUAGUUA", "pre-steady-state target cleavage rate": "0.0143 ± 0.0034"}, {"sequence": "UCCUGGAUGUGCUUGCAAAGUAUUUACUUA", "pre-steady-state target cleavage rate": "0.0584 ± 0.013"}]}]}
